# Paper PMC5741831, “Structural determinants for protein unfolding and translocation by the Hsp104 protein disaggregase” (Bioscience Reports, 2017)
# B1: Hsp104_(Y257A) (natural protein)
# chain: not shown
# notes: Hsp104, S. cerevisiae, full length, loop-1 mutant Y257A; also called Hsp104KAK; source: E. coli BL21-CodonPlus (DE3)-RIL, purified (Ni-NTA, size-exclusion chromatography); not shown: His6, N-terminal, cleaved
# B2: Hsp104_(V663G) (natural protein)
# chain: not shown
# notes: Hsp104, S. cerevisiae, full length, loop-3 mutant V663G; source: E. coli BL21-CodonPlus (DE3)-RIL, purified (Ni-NTA, size-exclusion chromatography); not shown: His6, N-terminal, cleaved
# B3: Hsp104GYG (natural protein)
# chain: not shown
# notes: Hsp104, S. cerevisiae, full length, loop-1 mutant with Lys256 and Lys258 changed to glycine; source: E. coli BL21-CodonPlus (DE3)-RIL, purified (Ni-NTA, size-exclusion chromatography); not shown: His6, N-terminal, cleaved
# B4: Hsp104GAG (natural protein)
# chain: not shown
# notes: Hsp104, S. cerevisiae, full length, loop-1 mutant with the 256Lys-Tyr-Lys258 tripeptide changed to Gly-Ala-Gly; source: E. coli BL21-CodonPlus (DE3)-RIL, purified (Ni-NTA, size-exclusion chromatography); not shown: His6, N-terminal, cleaved
# B5: Hsp104_(1D) (natural protein)
# chain: not shown
# notes: Hsp104, S. cerevisiae, full length, loop-2 mutant with Asn292 changed to aspartate; source: E. coli BL21-CodonPlus (DE3)-RIL, purified (Ni-NTA, size-exclusion chromatography); not shown: His6, N-terminal, cleaved
# B6: Hsp104_(4D) (natural protein)
# chain: not shown
# notes: Hsp104, S. cerevisiae, full length, all four loop-2 residues (291Gly-Asn-Gly-Lys294) replaced by aspartate; source: E. coli BL21-CodonPlus (DE3)-RIL, purified (Ni-NTA, size-exclusion chromatography); not shown: His6, N-terminal, cleaved
# B7: Hsp104_(4A) (natural protein)
# chain: not shown
# notes: Hsp104, S. cerevisiae, full length, loop-2 (291Gly-Asn-Gly-Lys294) replaced by four alanines; source: E. coli BL21-CodonPlus (DE3)-RIL, purified (Ni-NTA, size-exclusion chromatography); not shown: His6, N-terminal, cleaved
# B8: Hsp104_(4G) (natural protein)
# chain: not shown
# notes: Hsp104, S. cerevisiae, full length, loop-2 (291Gly-Asn-Gly-Lys294) replaced by four glycines; source: E. coli BL21-CodonPlus (DE3)-RIL, purified (Ni-NTA, size-exclusion chromatography); not shown: His6, N-terminal, cleaved
# Molecular target: the molecule itself
# Assay: SEC; Superdex 200 10/300 GL, 25 mM Tris/HCl pH 7.5, 150 mM NaCl, 5% glycerol, 1 mM DTT; without nucleotide; oligomeric state of the protein with itself
Protein,stoichiometry N,binding result
B1,6,–
B2,–,binds
B3,6,–
B4,6,–
B5,6,–
B6,6,–
B7,6,–
B8,6,–
